Data on 90 compounds can be found in PMC4336329 (PLoS ONE, 2015).

The campaign covered roughly 310,000 compounds. About 14,000 (4.5%) showed an effect of 50% or more. The effect is printed as a negative number. This is one part of the list.
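Also: peak tail current of the secondary pulse compared with the same well before compound.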

The target in this experiment is human ether-à-go-go-related gene (hERG) potassium channel (human, UniProt Q12809). The experiment is described as follows: primary screen, population patch clamp on CHO cells stably expressing hERG.
Chain of human ether-à-go-go-related gene (hERG) potassium channel (Q12809 whole entry, looked up): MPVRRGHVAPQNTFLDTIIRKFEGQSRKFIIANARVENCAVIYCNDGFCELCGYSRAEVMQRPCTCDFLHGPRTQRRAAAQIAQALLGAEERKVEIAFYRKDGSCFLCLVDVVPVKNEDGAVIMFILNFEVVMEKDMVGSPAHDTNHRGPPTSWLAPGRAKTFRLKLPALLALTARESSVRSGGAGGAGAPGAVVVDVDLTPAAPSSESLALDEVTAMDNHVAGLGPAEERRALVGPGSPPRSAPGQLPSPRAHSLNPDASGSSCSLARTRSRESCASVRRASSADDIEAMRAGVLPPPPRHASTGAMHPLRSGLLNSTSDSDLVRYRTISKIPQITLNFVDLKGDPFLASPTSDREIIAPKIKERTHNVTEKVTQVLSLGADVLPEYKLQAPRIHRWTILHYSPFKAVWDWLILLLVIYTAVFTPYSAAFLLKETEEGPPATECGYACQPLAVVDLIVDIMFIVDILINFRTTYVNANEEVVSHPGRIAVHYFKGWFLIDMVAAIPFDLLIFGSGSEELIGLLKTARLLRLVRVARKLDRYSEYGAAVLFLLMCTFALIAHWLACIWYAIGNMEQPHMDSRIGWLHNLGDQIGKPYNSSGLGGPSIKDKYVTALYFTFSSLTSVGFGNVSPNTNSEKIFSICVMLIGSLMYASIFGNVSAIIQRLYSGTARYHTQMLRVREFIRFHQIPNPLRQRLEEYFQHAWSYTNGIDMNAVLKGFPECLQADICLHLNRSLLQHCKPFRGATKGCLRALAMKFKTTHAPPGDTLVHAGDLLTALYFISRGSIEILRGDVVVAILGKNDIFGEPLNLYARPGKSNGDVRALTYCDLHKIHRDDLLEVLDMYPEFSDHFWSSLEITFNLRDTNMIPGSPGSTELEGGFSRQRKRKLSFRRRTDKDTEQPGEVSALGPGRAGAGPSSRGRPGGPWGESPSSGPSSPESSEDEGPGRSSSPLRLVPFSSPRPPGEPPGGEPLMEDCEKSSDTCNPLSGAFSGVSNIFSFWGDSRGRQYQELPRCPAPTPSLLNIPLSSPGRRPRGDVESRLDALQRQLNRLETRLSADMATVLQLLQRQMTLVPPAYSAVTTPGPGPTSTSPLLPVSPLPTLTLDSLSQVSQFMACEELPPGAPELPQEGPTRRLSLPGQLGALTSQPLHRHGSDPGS
With `Cc1cc(C)n(C(=O)CNC(=O)c2cccs2)n1`, the “hERG current change (%, negative = inhibition) at 10uM” value stood at 13.7%. Then `CC(C)c1ccc(N2C(=O)NC(=O)/C(=C/c3cnc(-c4ccccc4)nc3)C2=O)cc1`, with -1.15%.

For the compound `O=C(CN(Cc1ccccc1)C(=O)CCC(=O)Nc1nccs1)NCc1ccccc1`, the “hERG current change (%, negative = inhibition) at 10uM” value is -4.27%. In the case of `Cc1cc(C)cc(N2CCCn3c2nc2c3c(=O)n(CCN3CCOCC3)c(=O)n2C)c1`, the “hERG current change (%, negative = inhibition) at 10uM” value was -18.1%.

For `OCCCc1nc2ccccc2[nH]1`, the “hERG current change (%, negative = inhibition) at 10uM” value is 3.53%. The same measure for `COc1ccc(NC(=O)c2cnc(SC)nc2C)c(OC)c1`: 9.57%; for `COCC1CCN(C(=O)C2CCC(=O)N(C3CCCCCC3)C2)CC1` (stereo not drawn): 5.5%. Then `CN(C)S(=O)(=O)Oc1ccccc1C(=O)Nc1ccc(F)cc1`, with 6.76%; and `Fc1c(F)c(F)c(N/N=C/c2c[nH]c3ccccc23)c(F)c1F`, with 12.6%. Then `COC(=O)c1ccc(NC(=O)c2cccc(C)c2[N+](=O)[O-])cc1`, with 9.73%; and `O=C(Nc1nn[nH]n1)c1ccc(S(=O)(=O)N2CCCCC2)cc1`, with 38%; and `O=C(Cc1ccsc1)N1CCc2c([nH]c3ccccc23)C1c1ccccn1` (stereo not drawn), with 4.87%. `O=C1CSC(=S)N1c1ccc(O)cc1`: the “hERG current change (%, negative = inhibition) at 10uM” value amounted to 6.3%. The same measure for `COc1ccc(C(=O)CN2CCN(c3ccc(F)cc3)CC2)cc1`: -38.3%; for `Cn1nccc1CNC(=O)c1ccnn1C`: 14.9%; for `COC(=O)[C@H](Cc1ccccc1)NC(=O)N1Cc2ccccc2C[C@H]1C(=O)OC`: -1.29%. Then `Cc1c2c(n3c(nc4ccccc43)c1C#N)N(CCCN(C)C)CC2`, with -15.3%; and `CCNC(=O)c1c(O)c2c([nH]c1=O)CCCC2`, with 15.6%.

As for `CCOC(=O)c1nc(NCc2cccc(OC)c2)c2ccccc2n1`, the “hERG current change (%, negative = inhibition) at 10uM” value is -13.5%.

Regarding `CSc1nc(C)cc(-n2cc(F)c(=O)[nH]c2=O)n1`, the “hERG current change (%, negative = inhibition) at 10uM” value is -6.23%. The same measure for `Cc1cccc(NC(=S)NNC(=O)c2csc3c2CCC(C)C3)c1` (stereo not drawn): -2.63%; for `COc1ccccc1NC(=O)CC1SC(=N)N(c2ccccc2)C1=O` (stereo not drawn): 0.0676%. Then `Cc1ccc2c(=O)c(C(=O)NCc3cccs3)c[nH]c2c1`, with 3.23%. Then `CC(C)c1ccccc1NC(=O)COC(=O)c1ccc(Cl)c(S(=O)(=O)N2CCCCCC2)c1`, with 20.9%; and `Cc1c(C)c2ccc(OCC(=O)N3CCC(C(=O)O)(c4ccccc4)CC3)cc2oc1=O`, with -2.07%; and `CCC(=O)NC(c1ccc(C)cc1)c1cc([N+](=O)[O-])c2cccnc2c1O` (stereo not drawn), with 35.7%. On to `CCOc1ccccc1CN1C(=O)NC(C)(c2ccccc2)C1=O` (stereo not drawn), for which the “hERG current change (%, negative = inhibition) at 10uM” value is -3.52%. Then `COc1cc(/C=N/NC(=O)CSc2ccccn2)ccc1OC(C)C`, with -1.7%.

`COc1ccc(CN(C(=O)/C=C/c2ccccc2Cl)C2CCS(=O)(=O)C2)cc1` (stereo not drawn): the “hERG current change (%, negative = inhibition) at 10uM” value is recorded as -16.9%. For `O=C1/C(=C2\C(=O)N(Cc3ccc(F)cc3)c3ccccc32)SC(=S)N1CCS(=O)(=O)O`, the “hERG current change (%, negative = inhibition) at 10uM” value is on record as 4.31%.

On to `CCCc1nnc(NC(=O)c2ccncc2)s1`, for which the “hERG current change (%, negative = inhibition) at 10uM” value is listed as -3.78%.

For `Cc1ccc(N2C(=O)C(CN3CCCCC3)C2c2ccccc2)cc1` (stereo not drawn), the “hERG current change (%, negative = inhibition) at 10uM” value was -62.6%. Then `NNC(=O)c1csc(-c2cccc(C(F)(F)F)c2)n1`, with -30%; and `CCc1noc(C)c1C(=O)Nc1ncc(C)s1`, with 10.4%.

As to `COc1ccc(NC(=O)NC2(C(=O)N3CCCCC3)CCCCC2)cc1`, the “hERG current change (%, negative = inhibition) at 10uM” value was 24.8%.

In the case of `CCOc1ccccc1OCCCC(=O)NNC(=O)c1nn(C)c(=O)c2ccccc12`, the “hERG current change (%, negative = inhibition) at 10uM” value is on record as -20.3%.

`COc1cccc(C(=O)c2cn(CC(=O)NCc3ccco3)c3nc(C)ccc3c2=O)c1`: the “hERG current change (%, negative = inhibition) at 10uM” value is on record as -2.12%.

Consider `Cl.OCCN1CCN(c2ncnc3ccc(Br)cc23)CC1`, for which the “hERG current change (%, negative = inhibition) at 10uM” value was 0.812%. The same measure for `Cc1nc(CC(=O)c2c(C)cc(O)cc2O)cs1`: 5.96%; for `COc1ccc(-c2nn(-c3ccccc3)cc2/C=N/Nc2ccccn2)cc1`: 23%; for `CCOC(=O)c1[nH]c(C)c(C(=O)Nc2ccc3c(c2)OCCO3)c1C`: -5.88%.

For the compound `COc1ccc(NC(=O)CN(C)C(=O)c2cc(-c3ccc(Cl)cc3)nc3ccccc23)cc1`, the “hERG current change (%, negative = inhibition) at 10uM” value is -3.02%. With `COc1ccccc1NC(=O)c1cccc(S(=O)(=O)N2CCN(c3ccccc3)CC2)c1`, the “hERG current change (%, negative = inhibition) at 10uM” value was -11.2%. Take `Cc1ccc2oc(=O)cc(CN3CCN(Cc4ccccc4)CC3)c2c1`: the “hERG current change (%, negative = inhibition) at 10uM” value is reported as -56.8%. The same measure for `CCOC(=O)NC(CC(=O)O)c1ccc(OC)cc1` (stereo not drawn): 7.43%; for `COCCNC(=O)Cn1cnc2c1c(=O)n(C)c(=O)n2C`: 6.51%. Then `COC(=O)c1cc2c(ccc3ccccc32)oc1=O`, with -8.56%; and `Cc1nccn1CCCN1C(=O)OC2(CCCCC2)C1(C)O` (stereo not drawn), with 18.9%; and `COC(=O)c1ccccc1NC(=O)c1ccc(Cn2cc(Cl)cn2)o1`, with 4.21%. Then `O=C(NC(=S)Nc1ccccc1C(=O)O)c1ccc(-c2ccc(Br)cc2)o1`, with 28.3%; and `CCOC(=O)c1cnc(SCC(=O)Nc2cc(OC)cc(OC)c2)nc1N`, with -5.5%. For `O=C(CCCO)NC1Cc2ccccc2C1`, the “hERG current change (%, negative = inhibition) at 10uM” value came to 2.04%. Then `Cc1ccsc1C(=O)OCC(=O)Nc1sccc1C(N)=O`, with -6.35%. The same measure for `CS(=O)(=O)N(Cc1ccccc1F)c1ccccc1`: 0.694%. Take `Cc1ccc(OCC(=O)NC(=S)Nc2ccccn2)c(Br)c1`: the “hERG current change (%, negative = inhibition) at 10uM” value was found to be 24.3%. In the case of `CCN(CC)CCCNC(=O)c1cn(CCOC)c(=O)c2c1c1ccccc1n2C`, the “hERG current change (%, negative = inhibition) at 10uM” value is on record as -0.445%. As for `COc1cccc(CNC(=O)C(C)n2ccc3cc(S(=O)(=O)N4CCCCCC4)ccc32)c1` (stereo not drawn), the “hERG current change (%, negative = inhibition) at 10uM” value stood at 5.13%.

For `Cn1c(SCC(=O)Nc2cc([N+](=O)[O-])ccc2F)nnc1C(F)(F)F`, the “hERG current change (%, negative = inhibition) at 10uM” value was -14.3%.

With `COc1ccc(N2CCN(S(=O)(=O)CCNC(=O)C3CC3)CC2)cc1`, the “hERG current change (%, negative = inhibition) at 10uM” value is -4.28%. Then `COc1cccc(NC(=O)CC(c2ccc(OC(C)C)cc2)c2ccccc2OC)c1` (stereo not drawn), with 1.26%; and `COCCNC(=S)N/N=C(\C)c1ccc(-n2ccnc2)cc1`, with -66.2%.

As for `CCOC(=O)Oc1ccc(/C=C2\N=C(C)OC2=O)cc1`, the “hERG current change (%, negative = inhibition) at 10uM” value was 25.6%. Then `COC(=O)c1sc(NC(=O)CSc2nnc(Cn3nnc4ccccc43)n2C)nc1C`, with 23.9%. Then `COc1ccc(NC2c3ccccc3C(=O)N2c2cccnc2)cc1` (stereo not drawn), with -2.82%; and `Cc1ccc(-c2nnc(N3CCC(C)CC3)c3ccccc23)cc1C`, with 14%. Then `CCOC(=O)/C(C)=N/NC(=O)c1cccc([N+](=O)[O-])c1`, with 7.04%. On to `CCn1nnc2cc(C(=O)NCC(c3ccccc3OC)N(C)C)ccc21` (stereo not drawn), for which the “hERG current change (%, negative = inhibition) at 10uM” value is on record as 12%. Turning to `Cc1ccc(-c2nnc(Nc3ccccc3)o2)cc1`, the “hERG current change (%, negative = inhibition) at 10uM” value was -0.386%. On to `CCc1ccc(OCC(=O)NNC(=O)c2c(CC)noc2C)cc1`, for which the “hERG current change (%, negative = inhibition) at 10uM” value is reported as 10.8%. Then `COc1ccc2oc(C(=O)OCC(=O)NC3CC3)c(C)c2c1`, with 11%. Then `CNC(=O)c1ccsc1NC(=O)CCS(=O)(=O)c1ccccc1`, with 2.74%; and `Cc1cc(C)n2nc(SCc3nnc(-c4ccc(F)cc4)o3)nc2n1`, with -43%. The same measure for `O=C(N/N=C/c1cccc([N+](=O)[O-])c1)c1cccc2cc[nH]c12`: 15.9%; for `COC(=O)c1cc(CSC(=N)N)ccc1OCCC(C)C.Cl`: -3.46%. For the compound `Cc1cc(C)nc(NS(=O)(=O)c2ccc(NC(=O)CCN3C(=O)c4ccccc4C3=O)cc2)n1`, the “hERG current change (%, negative = inhibition) at 10uM” value was 3.74%. The same measure for `O=C(Cc1cccs1)Nc1nnc(-c2ccncc2)s1`: -21.2%; for `Cc1cccc(N2C(=O)C3C4C=CC(CC4)C3C2=O)c1` (stereo not drawn): 9.21%; for `Cc1ccc(-n2c(C)cc(/C=N/NC(=O)c3ccc(CN4CCOCC4)cc3)c2C)cc1`: -9.84%. Regarding `COc1cc(C(=O)NC2Cc3ccccc3C2)ccc1OC1CCN(C(C)=O)CC1`, the “hERG current change (%, negative = inhibition) at 10uM” value was found to be 4.22%. Regarding `CCCOc1ccc(C(C)=O)cc1Cc1c(O)[nH]c(=S)[nH]c1=O`, the “hERG current change (%, negative = inhibition) at 10uM” value was found to be 17%. As for `COc1ccc2nc(NC3=NCCC3)sc2c1`, the “hERG current change (%, negative = inhibition) at 10uM” value is recorded as -9.66%. Then `COCCN(C(=O)c1csnn1)C(C(=O)NC1CCCC1)c1ccccc1F` (stereo not drawn), with 6.33%.

With `CCN(c1ccccc1)S(=O)(=O)c1cccc(C(=O)NCC(c2ccco2)N2CCCC2)c1` (stereo not drawn), the “hERG current change (%, negative = inhibition) at 10uM” value is listed as -59.3%. The same measure for `COc1cc2cc(CN(CCc3cccc(C)c3)C(=S)NCCCN3CCOCC3)c(=O)[nH]c2cc1OC`: -66.9%.

Take `Cc1ccc(-n2cc(CN3CCNC(=O)CC3)c(-c3ccc(F)cc3)n2)cc1`: the “hERG current change (%, negative = inhibition) at 10uM” value is given as -35.4%.

On to `O=C(C1CCC1)N1CCc2cc(S(=O)(=O)NCc3ccccn3)ccc21`, for which the “hERG current change (%, negative = inhibition) at 10uM” value is recorded as 2.49%.

For `Nc1nnnn1/N=C/c1ccccc1OCc1ccccc1`, the “hERG current change (%, negative = inhibition) at 10uM” value is 19%. With `CCN(CC)S(=O)(=O)c1cc(C(=O)Nc2ccccc2[N+](=O)[O-])ccc1Cl`, the “hERG current change (%, negative = inhibition) at 10uM” value is reported as -14.4%. As for `O=C1c2ccccc2C(=O)N1CC(O)CNc1ccc(Br)cc1` (stereo not drawn), the “hERG current change (%, negative = inhibition) at 10uM” value is recorded as -11.4%. The same measure for `NS(=O)(=O)c1ccc(NC(=S)N2CCC(O)CC2)cc1`: 33.2%.
